Out of some 110,000 compounds screened, about 230 (0.21%) showed an effect of 50% or more. The list shows a part of the results.
What follows are compounds tested against DPAP1 (Plasmodium falciparum, UniProt Q8IIJ9) (assay: primary screen, percent inhibition; read by cleavage of a fluorogenic dipeptide substrate; higher = more effect of the substance).
Set-up: species or system P. falciparum D10 trophozoite lysates; single well
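Further: 30 min substrate incubation versus DMSO and 10 µM JCP410 controls.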

Sequence of DPAP1 (Q8IIJ9 whole entry, looked up): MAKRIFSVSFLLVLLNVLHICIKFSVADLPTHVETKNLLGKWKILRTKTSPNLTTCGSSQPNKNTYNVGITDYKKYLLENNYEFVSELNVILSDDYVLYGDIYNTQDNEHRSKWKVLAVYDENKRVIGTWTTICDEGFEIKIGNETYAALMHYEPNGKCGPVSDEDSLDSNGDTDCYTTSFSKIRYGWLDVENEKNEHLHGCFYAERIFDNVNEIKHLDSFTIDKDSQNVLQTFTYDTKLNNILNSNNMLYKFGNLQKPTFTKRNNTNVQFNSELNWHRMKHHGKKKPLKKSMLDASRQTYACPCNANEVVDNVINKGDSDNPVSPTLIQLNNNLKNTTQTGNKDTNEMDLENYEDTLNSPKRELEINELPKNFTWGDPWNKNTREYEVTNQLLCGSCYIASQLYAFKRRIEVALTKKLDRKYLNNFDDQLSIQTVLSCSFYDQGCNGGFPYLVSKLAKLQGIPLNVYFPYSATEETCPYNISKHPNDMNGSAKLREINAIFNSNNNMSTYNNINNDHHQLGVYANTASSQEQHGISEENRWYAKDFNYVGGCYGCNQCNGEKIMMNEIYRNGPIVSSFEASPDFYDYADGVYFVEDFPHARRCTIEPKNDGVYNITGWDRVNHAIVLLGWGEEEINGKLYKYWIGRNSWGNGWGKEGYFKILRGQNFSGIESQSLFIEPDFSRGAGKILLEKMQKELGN

Row | SMILES | % Inhibition @ 10 uM [%]
1 | COc1ccc(S(=O)(=O)c2c(O)nc3cc(C(=O)NCc4ccccc4Cl)ccc3c2O)cc1 | 6.05
2 | CCc1ccc(NC(=O)c2cc3nc(C(F)F)cc(C(F)F)n3n2)cc1 | -3.26
3 | COCCCNC(=O)CCc1nc2cccnc2n1Cc1ccc(OC)cc1 | -1.08
4 | CCN1CCN(Cc2cc([N+](=O)[O-])ccc2Cl)CC1 | 3.25
5 | CCCCC1CCC(C(=O)N(Cc2cc(OC)c(OC)c(OC)c2)C2CCS(=O)(=O)C2)CC1 (stereo not shown) | 1.9
6 | COc1ccc(NC(=O)CCCOc2ccc(Cl)cc2C)c(OC)c1 | -2.22
7 | CC(C)CSc1nc2c(c(=O)[nH]c(=O)n2C)n1CCc1ccccc1 | 4.7
8 | COc1ccc(-n2nc3c(c2NC(=O)c2ccccc2C(F)(F)F)CS(=O)(=O)C3)cc1 | 2.65
9 | CCOC(=O)c1c(NC(=O)c2sc3nc(C)cc(COC)c3c2N)sc2c1CCCC2 | 1.72
10 | CCCCCn1c(CN2CCN(Cc3ccccc3)CC2)nc2c1c(=O)[nH]c(=O)n2C | 43.2
11 | COC(=O)c1sccc1NC(=O)C1CCCN(c2ncnc3onc(C)c23)C1 (stereo not shown) | -2.07
12 | COc1ccccc1NC(=O)c1ccc(S(=O)(=O)N2CCCCC2C)cc1 (stereo not shown) | -3.83
13 | O=C(NC1CCCCC1)c1ccc(CNS(=O)(=O)c2ccc(Br)cc2)cc1 | -7.16
14 | COc1ccc(OC)c(C2C(C#N)=C(N)N(c3nc[nH]n3)C3=C2C(=O)CCC3)c1 (stereo not shown) | 0.343
15 | CC(C)C(=O)Nc1ccc(C(=O)Nc2cc(C(F)(F)F)ccc2Cl)cc1 | -3.26
16 | Cc1ccc(N(CC(=O)N2CCc3ccccc3C2)S(=O)(=O)c2ccccc2)cc1 | -0.173
17 | CC(C)CCN1C(=O)c2ccc(C(=O)NCc3ccco3)cc2C1=O | -1.82
18 | O=C(Nc1cccc(NC(=O)c2nc[nH]n2)c1)c1cccc(Cl)c1 | 4.94
19 | CC/N=c1\sc(C(=O)OC)cc(=O)n1CC | -7.13
20 | C=CCn1c(NCc2ccccc2C)nc2ccccc21 | 3.24
21 | NS(=O)(=O)c1ccc(CCNS(=O)(=O)c2cc(Cl)ccc2Cl)cc1 | -12.8

Row | SMILES | % Inhibition @ 10 uM [%]
22 | Cc1ccc(-n2nc3c([n+]2[O-])CCc2c-3no[n+]2[O-])cc1 | 1.37
23 | COc1ccc(OC)c(NC(=O)C(C)Oc2ccccc2)c1 (stereo not shown) | 0.992
24 | COc1ccc(C(=O)/C=C/c2ccco2)cc1 | 60.2
25 | O=C(NC1CCCCCC1)c1ccccc1[N+](=O)[O-] | -6.35
26 | COc1ccc(Cl)cc1N(CC(=O)N1CCCCCC1)S(=O)(=O)c1ccc(C)cc1 | -5.67
27 | CCC(=O)C1=C(NCCC(=O)O)CC(c2ccccc2)CC1=O (stereo not shown) | -6.28
28 | CN(CC(=O)NC1CCCCC1)S(=O)(=O)c1cccc2cccnc12 | 0.981
29 | CCn1c(C)cc(/C=C2\NC(=O)N(Cc3ccccc3)C2=O)c1C | -3.04
30 | CCOC(=O)c1cc(S(=O)(=O)NCCc2ccccc2)cn1C | 0.655
31 | CC(C)(C)C(/C=C\c1ccc(Cl)cc1Cl)n1nnnc1C1(N2CCOCC2)CCCC1 (stereo not shown) | -3.92
32 | Cc1ccc(Cn2c(SCC(=O)NCC3CCCO3)nc3ccsc3c2=O)cc1 (stereo not shown) | 0.4
33 | COc1cc(/C=C2\N=C(SC)SC2=O)cc(OC)c1OC | -0.85
34 | COc1cc(C2C(C#N)=C(N)OC3=C2C(=O)CC(C)(C)C3)ccc1OCC(=O)Nc1ccc(C)cc1 (stereo not shown) | 7.69
35 | CCCn1c2ccccc2n2cc(-c3ccc(-c4ccccc4)cc3)nc12 | 9.37
36 | COc1cccc2cc(C(C)=O)c(=O)oc12 | -4.04
37 | COc1ccc(N)cc1NC(=O)c1ccc(Cl)cc1Cl | 5.24
38 | Cc1cccc(CN2CCN(CCO)CC2)c1 | -3.04
39 | CCOc1ccccc1/C=C(\C#N)c1nc(-c2cc3ccccc3oc2=O)cs1 | -5.94
40 | COc1cc(C2CC(=O)NC3=C2C(=O)CC(C)(C)C3)cc(Cl)c1O (stereo not shown) | -4.53
41 | CC(=O)C(CCc1ccccc1)NC(=O)[C@H](CC(C)C)NC(=O)OCc1ccccc1 (stereo partly shown) | -7.36
42 | CN1CCCN(Cc2ccccc2Cl)CC1 | 1.48

Row | SMILES | % Inhibition @ 10 uM [%]
43 | CC1CCC(NC(=O)C2CCN(C(=O)c3sccc3-n3cccc3)CC2)CC1 (stereo not shown) | 1.72
44 | C=CCn1c(SCC(=O)N2CCCCCC2)nc2scc(-c3ccc(C)o3)c2c1=O | 0.722
45 | COC(=O)c1ccc(/C=c2\sc3nc(=O)c(Cc4ccccc4)nn3c2=O)cc1 | -5.62
46 | Cc1ccccc1-n1c(SCC(=O)NCc2ccccc2)nc2nncc-2c1O | 2.06
47 | N#CC1=C(N)Oc2[nH]nc(C34CC5CC(CC(C5)C3)C4)c2C1c1ccc(O)cc1 (stereo not shown) | 1.43
48 | Cc1ccc(S(=O)(=O)N(CC(=O)N2CCN(Cc3ccccc3)CC2)c2ccccc2)cc1 | 3.74
49 | CC(C)COc1ccc(/C=C2\SC(=O)N(CC(=O)N3CCOCC3)C2=O)cc1 | -17
50 | CCOc1cc(/C=C2/SC(=O)N(CC(=O)Nc3cccc(C)c3)C2=O)ccc1O | -3.12
51 | CCOC(=O)c1sc2c(c1NC(=O)c1ccccc1C)CCCC2 | -5.36
52 | CCN1CCCC1CNC(=O)c1nnc(Cc2cc(OC)c(OC)c(OC)c2)o1 (stereo not shown) | 3
53 | CCN1/C(=C2/SC(=S)N(C3CCCCC3)C2=O)C=Cc2ccccc21 | -1.77
54 | COc1cc(-c2[nH]nc3c2C(c2cccc(Br)c2)C(C#N)=C(N)O3)cc(OC)c1OC (stereo not shown) | -2.89
55 | O=C(N[C@@H](CC1CCCCC1)C(=O)N[C@@H](CCc1ccccc1)C(=O)c1nc2ccccc2o1)c1c[nH]cn1 | -3.49
56 | CC1CN(C(=O)c2ccc(COc3ccccc3Cl)cc2)CC(C)O1 (stereo not shown) | -2.74
57 | CCc1cc2c(cc3c(=O)n(CCCC(=O)NCc4ccc(OC(C)C)cc4)ncn32)s1 | 4.84
58 | CC(C)c1ccc(NC(=O)c2cccs2)cc1 | 3.54
59 | Oc1cc(Nc2cccc(Cl)c2)nc(O)n1 | 0.162
60 | O=C(O)c1ccc(NC(=O)c2csc3c2CCCC3)cc1 | 1.34
61 | CCN(CC)CCOc1ccc(Cl)c(C)c1 | -0.711

Source: article PMC6919601, “Identification of Plasmodium dipeptidyl aminopeptidase allosteric inhibitors by high throughput screening” (PLoS ONE, 2019)
